# Several values for one entry are separate records, joined by “and”; a condition that tells them apart may be missing. Identical values can stand only once. The list shows a part of the results. These are further read-outs of the screen, such as a control signal, another cell line or another target. No call is given for them. Most of these compounds were active or inconclusive in the main read-out, so they are no random draw.
# Assay: qHTS Assay for Lipid Storage Modulators (AID 1519)
# Conditions: Drosophila S3 cells, BODIPY lipid droplet/cell ratio, laser cytometry; measured here: cell count channel max response; cells loaded with oleic acid
# In short: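 Cells seeded at 5,000 per well were treated with compounds over a concentration series and loaded with oleic acid (400 uM, as added). Lipid droplet fluorescence (488 nm excitation, 500-530 nm channel) was read by laser-scanning cytometry and normalized to 20 uM Triacsin C.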
row,Compound,max response
1,Cc1cc(C)c(S(=O)(=O)Nc2ccccc2C(F)(F)F)c(C)c1,46.4%
2,COc1ccccc1-c1cncnc1NCc1cccs1,30.8%
3,COc1ccccc1-c1nc(N(C)Cc2ccco2)c2ccccc2n1,23.6%
4,COc1ccc(CNc2ncnc3ccc(-c4ccccc4OC)cc23)c(OC)c1,8.19%
5,COc1cc2cc3c4c(cc(OC)c(OC)c4c2cc1OC)CCN3C,75.8%
6,COc1ccccc1CNc1nc(-c2ccc(C(=O)N(C)C)cc2)nc2ccccc12,30.2%
7,COc1cccc(Cn2c(=O)c(C)nc3cnc(OCc4ccccc4)nc32)c1,15.4%
8,COc1ccccc1CNc1ncnc2ccc(-c3ccc4c(c3)OCO4)cc12,18.5%
9,COc1ccccc1N1CCN(C[C@@H](O)COc2cccc3ccccc23)CC1,97.4%
10,Cc1noc(C)c1C(=O)N1CCC2(CCCN(c3ncccn3)C2)CC1,38.5%
11,COc1ccccc1-c1nc(NCc2ccccc2)c2ccccc2n1,-33.9%
12,CC(C)C[C@@H](NC(=O)OCC1c2ccccc2-c2ccccc21)C(=O)O,54.3%
13,O=c1cc(-c2ccccc2)oc2c1ccc1ccccc12,13.1%
14,COc1cccc(-c2ccc3ncnc(NCc4cccnc4)c3c2)c1,5.55%
15,Nc1cc(=O)[nH]c(N)n1,-25.2%
16,Cc1ccc(S(=O)(=O)/C=C\C#N)cc1,-41%
17,COc1cccc(-c2ccc3ncnc(Nc4ccccc4)c3c2)c1,21%
18,Cc1c(-c2ccccc2)oc2cc(O)ccc2c1=O,57.2%
19,COc1cccc(Cn2c(=O)c(-c3ccccc3)nc3cnc(OC)nc32)c1,33.2%
20,Clc1ccccc1CNCC1CCC(CNCc2ccccc2Cl)CC1 (stereo not given),67.5%

row,Compound,max response
1,Cc1ccccc1-c1nc(N(C)Cc2ccco2)c2ccccc2n1,37%
2,CNCC[C@@H](Oc1ccccc1C)c1ccccc1,55.2%
3,COc1cccc(OC)c1OCCNC[C@@H]1COc2ccccc2O1,78.4%
4,Cn1cccc1C(=O)N1CCC2(CCCN(c3ccccn3)C2)CC1,13.9%
5,COc1ccc(CNc2ncncc2-c2ccccc2OC)c(OC)c1,18%
6,CN(Cc1ccco1)c1ncnc2ccc(-c3ccccc3Cl)cc12,12.5%
7,COc1c(-c2ccccc2)oc2c(ccc3occc32)c1=O,91.5%
8,Cc1c(Cl)cccc1Nc1ccccc1C(=O)O,35.9%
9,COc1ccccc1-c1cc(=O)c2cc(O)ccc2o1,90.5%
10,CCCCCCCNS(=O)(=O)c1cccc2c(Cl)cccc12,36.3%
11,CCOC(=O)C1=C[C@@]2(CC)CCCN3CCc4c(n1c1ccccc41)[C@H]32,53.2%
12,COc1ccccc1CNc1ccnc(-c2ccccc2CN(C)C)n1,47.2%
13,COc1ccc(CNc2ncncc2-c2ccc3c(c2)OCO3)c(OC)c1,10.5%
14,Cc1cccc(Nc2cc(Cl)nc(SCC(=O)O)n2)c1C,30.7% and 17.9%
15,Cn1cccc1C(=O)N1CCC2(CCCN(C(=O)Nc3cccc(C#N)c3)C2)CC1,9.5%
16,COc1ccccc1CNc1nc(-c2cccc(NS(C)(=O)=O)c2)nc2ccccc12,5.27%
17,Cc1cccc(CNc2ccnc(-c3ccccc3C(F)(F)F)n2)c1,33.7%
18,CS(=O)(=O)c1ccc(-c2cc(Br)sc2-c2ccc(F)cc2)cc1,122%
19,O=C(O)CC/C=C\C[C@@H]1CO[C@H](c2ccccc2Cl)O[C@@H]1c1ccccc1O,39.8%
20,COc1cccc(Cn2c(=O)c(CCc3ccccc3)nc3cnc(OC)nc32)c1,20.8%
